# According to publication PMC4336329 (PLoS ONE, 2015):
# The whole screen tested about 310,000 compounds, of which about 14,000 (4.5%) showed an effect of 50% or more. The effect is printed as a negative number. The list shows a part of the results.
# Biological target: human ether-à-go-go-related gene (hERG) potassium channel (human, UniProt Q12809)
# Test: primary screen, population patch clamp on CHO cells stably expressing hERG
# 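Further: peak tail current of the secondary pulse compared with the same well before compound.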
# Chain of human ether-à-go-go-related gene (hERG) potassium channel (Q12809 whole entry, looked up): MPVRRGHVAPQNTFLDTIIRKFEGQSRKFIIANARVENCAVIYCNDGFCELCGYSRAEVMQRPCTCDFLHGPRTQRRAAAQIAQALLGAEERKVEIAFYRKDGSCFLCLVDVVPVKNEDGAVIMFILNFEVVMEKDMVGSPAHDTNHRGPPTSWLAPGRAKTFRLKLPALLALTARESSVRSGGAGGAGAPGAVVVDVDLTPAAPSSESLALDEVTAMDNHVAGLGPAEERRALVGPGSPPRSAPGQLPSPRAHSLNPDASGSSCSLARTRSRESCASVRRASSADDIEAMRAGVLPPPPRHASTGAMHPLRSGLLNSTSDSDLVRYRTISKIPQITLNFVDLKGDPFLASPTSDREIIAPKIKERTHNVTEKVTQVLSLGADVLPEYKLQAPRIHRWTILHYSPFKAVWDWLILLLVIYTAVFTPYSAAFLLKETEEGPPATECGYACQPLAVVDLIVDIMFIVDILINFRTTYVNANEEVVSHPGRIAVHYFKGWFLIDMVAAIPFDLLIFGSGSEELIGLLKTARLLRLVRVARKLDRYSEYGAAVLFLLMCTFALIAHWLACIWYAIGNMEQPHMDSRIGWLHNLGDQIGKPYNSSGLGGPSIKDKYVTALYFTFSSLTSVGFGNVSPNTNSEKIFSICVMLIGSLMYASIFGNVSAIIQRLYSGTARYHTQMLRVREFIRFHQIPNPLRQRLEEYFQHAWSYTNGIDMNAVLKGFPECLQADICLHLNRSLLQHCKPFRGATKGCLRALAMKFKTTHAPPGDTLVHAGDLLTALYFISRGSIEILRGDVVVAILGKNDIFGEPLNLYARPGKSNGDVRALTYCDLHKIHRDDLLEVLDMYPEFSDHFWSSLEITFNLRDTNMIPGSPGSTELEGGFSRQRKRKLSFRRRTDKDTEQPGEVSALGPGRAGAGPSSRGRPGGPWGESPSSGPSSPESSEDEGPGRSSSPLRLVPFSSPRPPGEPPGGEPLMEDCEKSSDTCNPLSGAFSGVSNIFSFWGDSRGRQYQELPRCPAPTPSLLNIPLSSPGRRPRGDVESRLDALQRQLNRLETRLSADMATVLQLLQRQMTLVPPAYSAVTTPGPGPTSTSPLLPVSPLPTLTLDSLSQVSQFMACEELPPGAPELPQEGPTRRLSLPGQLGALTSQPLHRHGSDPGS
row,Compound,"hERG current change (%, negative = inhibition) at 10uM"
1,N#CCCn1cc(/C=C/C(=O)O)c(-c2ccc(F)cc2)n1,13%
2,CCOC(=O)c1c(SC)n(-c2ccccc2)c(=S)n(-c2ccccc2)c1=O,17.6%
3,CCN(CC(=O)NC(=O)Nc1ccccc1F)Cc1ccccc1,12.4%
4,Cc1ccc2oc(=O)n(CC(=O)c3ccc(F)cc3)c2c1,14.9%
5,COc1ccc(-c2nnc(SCC#N)o2)cc1,11.3%
6,O=C(Nc1ccc(-c2nnc3n2CCCCC3)cc1)c1cc2ccccc2o1,-71.8%
7,CC(=O)OC1=C(O)C(=O)c2ccccc2C1=O,-6.46%
8,COc1ccc(CN(CC(=O)NCc2ccc(F)cc2)C(=O)CCC(=O)Nc2ccccn2)cc1,-28.2%
9,Cc1nn(C(C)(C)C)c(OC(=O)c2cccs2)c1S(=O)(=O)c1ccccc1,0.316%
10,O=C(CCCSc1nc2ccccc2[nH]1)Nc1nnc(C2CC2)s1,-1.62%
11,C=CCc1cc(Cl)ccc1OCCN(C)C.O=C(O)C(=O)O,-42%
12,O=C1[C@H]2[C@@H](c3ccc(F)cc3)N3C(=O)N(c4cccc(Br)c4)C(=O)[C@@]3(Cc3ccccc3)[C@H]2C(=O)N1C1CCCCC1,12%
13,CCCSc1cc(Cl)nc(N)n1,-9.06%
14,Cc1ccc(NC(=O)CSCC(=O)N2CCN(Cc3ccc4c(c3)OCO4)CC2)cc1,-25.9%
15,O=C(Nc1ccccc1)Nc1nc(-c2ccc(F)c(F)c2)cs1,16.3%
16,Cl.ClCCNc1nc2ccc(Cl)cc2[nH]1,11.3%
17,COc1ccc(OC)c(NC(=O)CCN2CCN(Cc3ccccc3)CC2)c1.Cl,-32.9%
18,Cc1ccc(NC(=O)C(SCC(=O)O)c2ccccc2)cc1C (stereo not drawn),-3.86%
19,CC(C)C[C@H](NC(=O)[C@@H]1Cc2c([nH]c3ccccc23)C2c3ccccc3C(=O)N21)C(=O)NCC1CCCO1 (stereo partly drawn),-14.2%
20,O=C(CCn1c(=O)oc2ccccc21)NCCC1=CCCCC1,13.3%
21,CN1CCC(N(C)C(=O)COc2ccc(S(=O)(=O)N3CCOCC3)cc2)CC1,15.4%
22,O=C1CCCC2=C1C(c1ccccc1)CC(=O)N2c1ccccc1 (stereo not drawn),7.02%

row,Compound,"hERG current change (%, negative = inhibition) at 10uM"
1,CCCCCc1ccc(-c2cn(CC3CCCCC3)nn2)cc1,19.1%
2,Cc1ccc(NC(=O)Cn2nc(C)c(S(=O)(=O)N(C)C)c2C)cc1C,17.1%
3,Cc1c(NC(=S)NC(=O)c2ccc(COc3ccccc3)cc2)cccc1C(=O)O,15.9%
4,COc1cccc(NC(=O)N2CCCc3ccccc32)c1,-7.3%
5,Cc1nn(C)cc1/C=C1\SC(=S)NC1=O,18.4%
6,CCCCn1c(O)c(C(CC)=NCCN2CCOCC2)c(=O)[nH]c1=O,-15.3%
7,CC(=O)c1ccc(OCC(O)CN2CC(C)OC(C)C2)cc1.Cl (stereo not drawn),8.19%
8,Cc1ccc(C)n1CCN1CCN(S(=O)(=O)c2ccc(F)cc2F)CC1,5.1%
9,Cc1oc(-c2cccs2)nc1CN1CCN(C2CCCC2)C(CCO)C1 (stereo not drawn),-11.2%
10,C[C@@H](CN=[N+]=[N-])CN1CC[C@H](NC(=O)OCc2ccccc2)CCC1=O,-35.6%
11,Cc1ccc(N=Nc2c(C)[nH]n(C(N)=S)c2=O)cc1,16.2%
12,COc1cccc(NC(=O)c2cncs2)c1,18.9%
13,C=CCn1c(=O)c2ccccc2n2c(SCC(=O)O)nnc12,20.7%
14,CCC(C)(C)C1CCC2(CC1)NC(=O)N(CC(=O)N1CCN(C(=O)c3ccco3)CC1)C2=O (stereo not drawn),-14.3%
15,CC(C)N(Cc1nc(-c2ccccc2)no1)C(=O)CN(C)S(=O)(=O)c1ccc(Br)cc1,-11.6%
16,CCOC(=O)C1(C)NC(c2ccc(N(C)C)cc2)C2C(=O)N(c3ccc(OC)cc3)C(=O)C21 (stereo not drawn),4.84%
17,CCCc1nc2c(C)ccc(C)c2c(N)c1CC,-62.5%
18,CCOC(=O)c1c(C)n(-c2ccc(C)cc2)c2c(C(C(C)=O)C(=O)O)c(Br)c(O)c(O)c12 (stereo not drawn),-0.463%
19,CC(C)c1nnc(NC(=O)CCC(=O)N2CCN(Cc3ccccc3)CC2)s1,4.17%
20,O=C(Nc1ccccc1)c1ccc(Br)c(S(=O)(=O)Nc2cccnc2)c1,14.9%
21,CNC(=O)CSc1nnc(-c2ccncc2)n1Cc1ccccc1,9.26%
22,CC(C)(C)OC(=O)[C@H](Cc1ccccc1)NC(=O)c1nc[nH]c1C(=O)NC1CC[NH2+]CC1.[Cl-],4.16%

row,Compound,"hERG current change (%, negative = inhibition) at 10uM"
1,CCC(C(=O)NCCc1ccc(OC)c(OC)c1)n1nc(C)n2c(cc3occc32)c1=O (stereo not drawn),-7.26%
2,Cc1ccc2nc(NC(=O)c3cccs3)sc2c1,-2.84%
3,CCC(=O)CCC(=O)c1ccc2ccccc2c1,4.48%
4,COc1ccc2sc(-c3ccccc3OC)c(-c3ccc(OC)c(F)c3)c2c1,10.8%
5,CCN(CC)CCN(C(=O)C1=COCCO1)c1nc2ccc(C)cc2s1.Cl,-78.3%
6,CSc1c(CC(=O)Nc2ccccc2Cl)n(Cc2ccccc2)c2ccccc12,8.86%
7,COC(=O)N/N=C\c1ccccc1OC/C=C/c1ccccc1,6.71%
8,COC(=O)CSc1nnc([C@H](Cc2ccccc2)NC(=O)OC(C)(C)C)o1,-15.8%
9,Cc1cc(Cl)ccc1OCC(=O)OCC(=O)N(CC(C)C)c1c(N)n(Cc2ccccc2)c(=O)[nH]c1=O,-4.74%
10,Cc1c(C(=O)N2CC3(CC(c4cccc(NC(=O)CC(c5ccccc5)c5ccccc5)c4)=NO3)C[C@@H]2C(N)=O)cc([N+](=O)[O-])cc1[N+](=O)[O-] (stereo partly drawn),7.4%
11,O=C(O)c1ccc(S(=O)(=O)NC2CCCCC2)cc1,29.4%
12,O=C(Nc1ccc2c(c1)CCC2)c1ccc(Br)s1,38.7%
13,O=C(/C=C/c1ccccc1)Nc1ccc(CN2CCOCC2)cc1,-62.5%
14,O=C1COc2ccc(C(=O)NCc3ccco3)cc2N1,3.07%
15,CCC1CCCCN1CCCNC(=O)C(C)n1nc(C)c2sc3ccccc3c2c1=O (stereo not drawn),-69.8%
16,CCc1ccc(CCC(=O)Nc2ccc(C(C)=O)cc2)o1,3%
17,CCc1noc(C)c1C(=O)Nc1sc(C(=O)N(C)C)c(C)c1C(=O)OC,-5.03%
18,Cc1ccc(F)cc1S(=O)(=O)Nc1cccc(C(=O)N2CCCC(C(N)=O)C2)c1 (stereo not drawn),2.48%
19,CCN(Cc1ccccc1)C(=O)Cc1ccc(OC)c(S(=O)(=O)N2CCOCC2)c1,-25.1%
20,CCn1c(/C=C/c2cc[n+](C)cc2)nc2ccccc21.[I-],15%
21,Cc1c(C(c2ccc(Br)cc2)c2c(O)c3ccccc3oc2=O)c(=O)n(-c2ccccc2)n1C (stereo not drawn),-5.45%
22,COc1cc(/C=C2/SC(=O)N(Cc3ccccc3)C2=O)ccc1OCc1ccncc1,9.37%

row,Compound,"hERG current change (%, negative = inhibition) at 10uM"
1,Clc1ccc(C2Nc3cccc4cccc(c34)N2)cc1,-2.37%
2,Cc1ccc(S(=O)(=O)/N=C2/C=C(Sc3ncn[nH]3)C(=O)c3ccccc32)cc1,-7.34%
3,Cc1ccc(NC(=O)CN(C)C(=O)CSc2nc(C)cc(C)n2)cc1,5.43%
4,O=C(Nc1ccc(N2CCN(C(=O)c3ccco3)CC2)cc1)c1cccnc1Cl,4.01%
5,Cc1cc(F)ccc1S(=O)(=O)N1CCCOC1CNC(=O)C(=O)NC1CC1 (stereo not drawn),-32.7%
6,CCCC(=O)OCC(=O)Nc1ccc([N+](=O)[O-])cc1C#N,3.29%
7,COc1cc(NC(=O)CCCn2c(=S)[nH]c3ccccc3c2=O)cc(OC)c1OC,8.48%
8,CCOC(=O)C1CCN(C(=O)Cn2cc(C#N)c3ccccc32)CC1,-13.6%
9,CCCS(=O)(=O)c1c(S(=O)(=O)CCC)c2ccc(C(C)=O)cn2c1C(=O)OC,-12%
10,CCCC(=O)NC(C)c1nc2ccccc2[nH]1 (stereo not drawn),10.5%
11,O=[N+]([O-])c1ccc(OCCOc2ccccc2/C=N/n2cnnc2)cc1,-38.1%
12,Cc1noc(C)c1C(=O)N1CCOCC1,26.2%
13,CCOC(=O)C(=O)N1CCC(C(=O)OC)CC1,27.4%
14,O=C1N/C(=C/c2cccn2-c2ccccc2)C(=O)N1Cc1ccc(F)cc1,-9.44%
15,CCN(CC)c1ccc(/C=N/OC(C)C(=O)Nc2ccc(C)cc2)cc1 (stereo not drawn),-6.31%
16,CCC(=O)Nc1cc2c3c(c1)CCN3C(=O)CC2,1.41%
17,O=Cc1ccc(-c2nc3ccccc3s2)o1,-12.6%
18,CCS(=O)(=O)c1nc(S(=O)(=O)c2ccc(Cl)cc2)c(N2CCN(C)CC2)s1,-19%
19,COc1ccc(OC(C)C(=O)Nc2ccc(F)cc2F)cc1 (stereo not drawn),5.81%
20,O=C(NCCc1ccc(Cl)cc1)c1ccc2c(c1)OCCO2,25.9%
21,CCOc1ncccc1C(=O)Nc1ccc(S(=O)(=O)Nc2nc(C)cc(C)n2)cc1,2.16%
